The values below come from PubChem BioAssay AID1347073 (National Center for Advancing Translational Sciences (NCATS), 2019).

Structures are written as SMILES. The campaign covered roughly 45,000 compounds. About 200 (0.44%) were called active. About 7% were inconclusive and are not listed. Calls come from the whole dose curve; as a rule, active = well fitted activation curve with a large enough effect; inconclusive = small, poorly fitted or top-dose-only effect; inactive = no such curve, though single readings can be large or run the other way. This is one part of the list.

The assay in a line: qHTS of TDP-43 Inhibitors: NCGC Sytravon Library Screen. Note: 0% is about no effect; nearly all actives have a fitted effect of over 55% in size. The conditions noted are these: yeast TDP-43 toxicity rescue, BacTiter-Glo growth, 24 h; series mostly up to 46.1 µM; growth rescue (activation): at the top concentration. The procedure, abridged:
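TDP-43-expressing yeast, pregrown in raffinose, seeded at OD600 0.02 in galactose medium with compound for 24 hr at 30 deg C. Growth read by BacTiter-Glo luminescence, so rescue of toxicity appears as activation.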
In general terms: Quantitative high-throughput screening tests each substance at several concentrations.
As to `COc1cccc(C2=NOC(C(=O)Nc3cccnc3Cl)C2)c1` (stereo not drawn), the “growth rescue (activation)” value was inactive: -5.8%.
Take `Cc1cc(C)cc(NC(=O)Cc2ccc(-n3cccc3)cc2)c1`: the “growth rescue (activation)” value is inactive: 7.97%.
Take `NC(=O)C1CCN(C(=O)c2cnn(-c3ccccc3)c2NC(=O)c2cccc(F)c2)CC1`: the “growth rescue (activation)” value is inactive: 6.32%.
On to `CC1CCc2onc(C(=O)O)c2C1` (stereo not drawn), for which the “growth rescue (activation)” value is inactive: 12.1%.
In the case of `CCOC(=O)C1(C)CCCN(C(=O)c2cc(C#N)cs2)C1` (stereo not drawn), the “growth rescue (activation)” value was inactive: 8.15%.
For `COc1ccccc1OCCn1c(=O)n(C)c2ccccc21`, the “growth rescue (activation)” value is inactive: 6.31%.
For the compound `Cc1ccc(Nc2nnc(SC3CCOC3=O)s2)cc1` (stereo not drawn), the “growth rescue (activation)” value was inactive: -6.95%.
For the compound `Cc1ccc(NC(=O)CCNS(=O)(=O)c2cccc3nonc23)cc1Cl`, the “growth rescue (activation)” value is inactive: 3.64%.
On to `COc1cc(/C=C/C(=O)N2CCN(C(=O)/C=C/c3cc(OC)c(OC)c(OC)c3)CC2)cc(OC)c1OC`, for which the “growth rescue (activation)” value is inactive: -0.636%.
Regarding `Cc1ccccc1NC(=S)NCCc1ccc(S(N)(=O)=O)cc1`, the “growth rescue (activation)” value was inactive: 17.5%.
On to `Cc1cccc(N2CCN(C(=O)c3ccc4[nH]c(C)c(C)c4c3)CC2)c1C`, for which the “growth rescue (activation)” value is inactive: 0.568%.
With `Cn1c(Cc2ccccc2)nnc1SCC(=O)NC1CC1` the figure was inactive: -5.59%; with `CCc1nnc(SCC(=O)Nc2ccccc2)n1CC1CCCO1` (stereo not drawn), inactive: -1.78%; with `COc1ccc(CNc2nc3ccccc3n2CCN2CCCCC2)cc1`, inactive: 7.34%.
With `O=c1oc2cc(O)ccc2cc1-c1nnc(Nc2ccccc2F)s1`, the “growth rescue (activation)” value was inactive: 5.83%.
Take `Cc1ccc(C)c(NC(=O)C(C)N2C(=O)c3ccccc3C2=O)c1` (stereo not drawn): the “growth rescue (activation)” value is inactive: 14.3%.
With `CC(C)Oc1ccccc1C1Nc2ccccc2C(=O)N1c1ccc2c(c1)OCCO2` (stereo not drawn) the figure was inactive: 2.32%; with `O=C(O)c1ccc2c(c1)S(=O)(=O)N=C1CCCCCN12`, inactive: -25.4%; with `CC12CN3CC(C)(CN(C1)C3c1ccccc1Cl)C2O` (stereo not drawn), inactive: -37.4%.
On to `CCC(COC)NC(=O)CCc1nnc(Cc2cccc(C(F)(F)F)c2)o1` (stereo not drawn), for which the “growth rescue (activation)” value is inactive: 2.27%.
Take `CC(NC(=O)c1cc(F)c(F)cc1Cl)C1CC2CCC1C2` (stereo not drawn): the “growth rescue (activation)” value was inactive: 18.1%.
As for `Cc1nnc(SCC2=C(C(=O)O)N3C(=O)C(NC(=O)Cn4nc(C)c(Cl)c4C)C3SC2)s1` (stereo not drawn), the “growth rescue (activation)” value was inactive: -2.83%.
The figure for `O=C(Nc1ccc(Cl)cc1)C1Cc2c(-c3ccc(Cl)cc3)ccnc2O1` (stereo not drawn) is inactive: -4.34%; for `COC(=O)c1ccc(C(=O)OC)c(NC(=S)N2CCN(C)CC2)c1` it is inactive: 1.01%.
With `CCOC(=O)N1CCN(CC(O)COc2ccccc2C(C)(C)C)CC1` (stereo not drawn) the figure was inactive: -7.94%.
With `Cc1nn(C)cc1CNCc1c(C(=O)N2CCCCC2)nc2c(C)cccn12`, the “growth rescue (activation)” value was inactive: 3.97%.
As to `Cc1cc(SCC(=O)NC2CC2)nc2ccccc12`, the “growth rescue (activation)” value is inactive: 32.9%.
For the compound `CCC(C)NC(=O)Cn1c(=O)sc2ccccc21` (stereo not drawn), the “growth rescue (activation)” value was inactive: 5.46%.
In the case of `Cc1ccc(NCc2nnc3n2CCCCC3)c(C)c1`, the “growth rescue (activation)” value was inactive: -12.7%.
The figure for `NNC(=O)c1ccc(CSc2n[nH]c(=O)[nH]c2=O)cc1` is inactive: -4.06%.
Regarding `O=C(Nc1ccc(Cc2ccc(NC(=O)C3CC3)cc2)cc1)C1CC1`, the “growth rescue (activation)” value was inactive: 4.51%.
Consider `Clc1ccc(SCc2cn3ccccc3n2)cc1`, for which the “growth rescue (activation)” value is inactive: 16.7%.
For `COc1ccc(/C=N/NC(=O)c2[nH]c3ccc(Br)cc3c2-c2ccccc2)c(C(=O)O)c1OC`, the “growth rescue (activation)” value is inactive: -4.09%.
Consider `CCOC(=O)Cc1csc(N/N=C/c2ccccc2)n1`, for which the “growth rescue (activation)” value is inactive: 17.9%.
Regarding `O=C(Nc1cccc(Cl)c1)c1csc([C@@H]2O[C@H](CO)[C@H](O)[C@H](O)[C@H]2O)n1`, the “growth rescue (activation)” value is inactive: 2.12%.
`CC(=O)Nc1cccc(-c2csc(C(O)c3ccccc3)n2)c1` (stereo not drawn): the “growth rescue (activation)” value was inactive: -3.62%.
With `O=C(COC(=O)C1C2CC3OC(=O)C1C3C2)Nc1cccc(C(F)(F)F)c1` (stereo not drawn), the “growth rescue (activation)” value was inactive: 7.23%.
Regarding `O=C(CC(=O)Nc1nc(C23CC4CC(CC(C4)C2)C3)cs1)NCCO`, the “growth rescue (activation)” value was inactive: 11.3%.
Regarding `CCOc1ccccc1NC(=S)Nc1ccc(S(N)(=O)=O)cc1`, the “growth rescue (activation)” value was inactive: -0.249%.
`Cc1nn(S(=O)(=O)c2ccccc2)c(C)c1S(=O)(=O)N1CCOCC1`: the “growth rescue (activation)” value was inactive: -13.8%.
On to `CCOc1ccc(S(=O)(=O)NCCC(=O)OCC(=O)NC(=O)c2cccn2C)cc1`, for which the “growth rescue (activation)” value is inactive: 3.3%.
`O=[N+]([O-])c1ccc(COc2ccc(-c3[nH]ncc3-c3ccc(Cl)cc3)c(O)c2)cc1`: the “growth rescue (activation)” value is inactive: 0.433%.
On to `COc1cc(C(=O)NC(=S)Nc2ccc3[nH]c(=O)[nH]c3c2)cc(OC)c1OC`, for which the “growth rescue (activation)” value was inactive: -1.85%.
For `CC(=O)Nc1ccc(NC(=O)C2(C)Cc3c(-c4ccccc4)ccnc3O2)cc1` (stereo not drawn), the “growth rescue (activation)” value is inactive: -2.48%.
In the case of `O=C1CN(C(=O)COC(=O)[C@@H]2CCCN2S(=O)(=O)c2ccc(Cl)cc2)c2ccccc2N1`, the “growth rescue (activation)” value is inactive: 21.1%.
In the case of `CCC(C)NC(=O)c1ccccc1NC(=O)CN(c1cc(C)ccc1OC)S(C)(=O)=O` (stereo not drawn), the “growth rescue (activation)” value was inactive: -2.69%.
The figure for `O=C(/C=C/c1ccco1)N(Cc1ccc(Cl)cc1)C1CCS(=O)(=O)C1` (stereo not drawn) is inactive: -28.4%; for `O=C(O)CCc1ccc(-c2cccs2)n1NC(=O)c1cccs1` it is inactive: -1.56%.
With `COc1ccccc1OCCCOc1c(Cl)cc(C)cc1Cl` the figure was inactive: -7.88%; with `CCOc1ccc(CN(C)CC(=O)Nc2ccc(N3CCOCC3)cc2)cc1OC`, inactive: 10.4%.
Regarding `COC(=O)c1ccc(Oc2nc(NC(C)C)nc(NC(C)C)n2)cc1`, the “growth rescue (activation)” value was inactive: 1.98%.
Take `Cc1ccc(N2CC(C(=O)Nc3ccc(S(=O)(=O)Nc4nccs4)cc3)CC2=O)cc1` (stereo not drawn): the “growth rescue (activation)” value was inactive: 18.1%.
Consider `CC(=O)c1ccc(Cc2ccccc2)cc1`, for which the “growth rescue (activation)” value was inactive: 13.1%.
